Measurements reported in the RNAGym collection of RNA variant scans (doi:10.1101/gad.245936.114).
Variants at the background level are over-represented here.

B1: tRNA (parent)
chain: CUCUCGGUAGCCAAGUUGGUUUAAGGCGCAAGACUUUAAUUUAUCACUACGAAAUCUUGAGAUCGGGCGUUCGACUCGCCCCCGGGAGAUUUUUUCCUCGAGCAA

Variants of: B1
Test: nonsense suppression (GFP-seq) (ratio to wild type); higher = more function; SUP4oc tRNA, yeast GFP reporter sort-seq
Summary of the method: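 Nonsense suppression (GFPSEQ) is the median GFP/RFP ratio of each sorting bin, weighted by the variant's estimated share of cells in that bin and expressed relative to the unmutated parent tRNA. Yeast strains carried genome-integrated variants of an ochre-suppressor tRNA from a library with ~3% random mutations, plus a galactose-driven GFP ochre reporter and RFP, and were grown in raffinose/galactose medium containing 80 mg/L adenine. Cells were sorted into GFP/RFP bins, each bin was Illumina-sequenced (phred ≥30), and variants were kept only with ≥100 reads and ≥30 cells.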

Variant	nonsense suppression
CUCUCGGUAGCGAAGUUGGUUUAAGGCGCAAGACUUUAAUUUAUCACUACGAAAUCUUGAGAUCGGGCGUUAGACUCGCCCCCGGGAGAUUUUUUCCUCGAGCAA [C12G C72A]	≤ 0.026
CUCUCGGUAGCGAAGUUGGUUUAAGGCGCAAGACUUUAAUUUAUCACUACGAAAUCUUGAGAUCGGGCGUUGGACUCGCCCCCGGGAGAUUUUUUCCUCGAGCAA [C12G C72G]	≤ 0.026
CUCUCGGUAGCGAAGUUGGUUUAAGGCGCAAGACUUUAAUUUAUCACUACGAAAUCUUGAGAUCGGGCGUUUGACUCGCCCCCGGGAGAUUUUUUCCUCGAGCAA [C12G C72U]	≤ 0.026
CUCUCGGUAGCGAAGUUGGUUUAAGGCGCAAGACUUUAAUUUAUCACUACGAAAUCUUGAGAUCGGGCGUUCGACUCGCCCUCGGGAGAUUUUUUCCUCGAGCAA [C12G C82U]	≤ 0.026
CUCUCGGUAGCGAAGUUGGUUUAAGGCGCAAGACUUUAAUUUAUCACUACGAAAUCUUGAGAUCGGGCGUUCGACUCGCCCCUGGGAGAUUUUUUCCUCGAGCAA [C12G C83U]	≤ 0.026
CUCUCGGUAGCGAAAUUGGUUUAAGGCGCCAGACUUUAAUUUAUCACUACGAAAUCUUGAGAUCGGGCGUUCGACUCGCCCCGGGGAGAUUUUUUCCUCGAGCAA [C12G G15A A30C C83G]	≤ 0.026
CUCUCGGUAGCGAAAUUGUUUUAAGGCGCAAGACUUUAAUUUAUCACUACGAAAUCUUGAGAUCGGGCGUUCGACUCGCCCCCGGGAGAUUUUUUCCUCGAGCAA [C12G G15A G19U]	≤ 0.026
CUCUCGGUAGCGAAUUUGGUUUAAGGCGCAGGACUUUAAUUUAUCACUACGAAAUCUUGAGAUCGGGCGUUCGACUCGCCCCCCGGAGAUUUUUUCCUCGAGCAA [C12G G15U A31G G84C]	≤ 0.026
CUCUCGGUAGCGAAUUUGGUUUAAGGCGCAAGACUUUAAUUUAUCACUACGAAAUCUUGAGAUCAGGCGUUCGACGCGCCCCCGGGAGAUUUUUUCCUCGAGCAA [C12G G15U G65A U76G]	≤ 0.026
CUCUCGGUAGCGAAGUUCGUUUAAGGCGCAAGACUUUAAUUUAUCACUACGAAAUCUUGAGAUCGGGCGUUCGACUCGCCCCCGGGCGCUUUUUUCCUCGAGCAA [C12G G18C A87C A89C]	≤ 0.026
CUCUCGGUAGCGAAGUUGGUUUAAAGCGCAAGACUUUAAUUUAUCACUACGAAAUCUUGAGAUCGGGCGUUCGACUCGCCCCCGGGAGAUUUUUUCCUCGAGCAA [C12G G25A]	≤ 0.026
CUCUCGGUAGCGAAGUUGGUUUAACGGGCAAGACUUUAAUUUAUCACUACGAAAUCUUGAGAACGGGCGUUCGACUCGCCCCCGGGAGAUUUUUUCCUCGAGCAA [C12G G25C C27G U63A]	≤ 0.026
CUCUCGGUAGCGAAGUUGGUUUAACGCGCAAGACUUUAAUUUAUCACUACGAAAUCUUGAGAUCGGGCGUUCGAAUCGCCCCCGGGAGAUUUUUUCCUCGAGCAA [C12G G25C C75A]	0.482
CUCUCGGUAGCGAAGUUGGUUUAAGGCCGAAGACUUUAAUUUAUCACUACGAAAUCUUGAGAUCGGGCGUUCGACUCGGCCCCGGGUGAUUUUUUCCUCGAGCAA [C12G G28C C29G C79G A87U]	≤ 0.026
CUCUCGGUAGCGAAGUUGGUUUAAGGCCCAAGACUUUAAUUUAUCACUACGAAAUCUUGAGAUCGGGCGUUCGACUAACCCUCGGGAGAUUUUUUCCUCGAGCAA [C12G G28C C77A G78A C82U]	≤ 0.026
CUCUCGGUAGCGAAGUUGGUUUAAGGCGCAAUACUUUAAUUUAUCACUACGAAAACUUGAGAUCGGGCGUUCGACUCGCCCCCGGGAGAUUUUUUCCUCGAGCAA [C12G G32U U55A]	≤ 0.026
CUCUCGGUAGCGAAGUUGGUUUAAGGCGCAAGACUUUAAUUUAUCACUACGAAAUCUUGAAAUCGGGCGUUCGACUAGCCCCCGGGAGAUUUUUUCCUCGAGCAA [C12G G61A C77A]	≤ 0.026
CUCUCGGUAGCGAAGUUGGUUUAAGGCGCAAGACUUUAAUUUAUCACUACGAAAUCUUGAAAUCGGGCGUUCCACUCGCCCCCGGGAGAUUUUUUCCUCGAGCAA [C12G G61A G73C]	≤ 0.026
CUCUCGGUAGCGAAGUUGGUUUAAGGCGCAAGACUUUAAUUUAUCACUACGAAAUCUUGAGAUCGGACGUUCGCCUCGCCCCCGGGAAAUUUUUUCCUCGAGCAA [C12G G67A A74C G88A]	≤ 0.026
CUCUCGGUAGCGAAGUUGGUUUAAGGCGCAAGACUUUAAUUUAUCACUACGAAAUCUUGAGAUCGGCCUUUCGACUCGCCCCCGGGAGAUUUUUUCCUCGAGCAA [C12G G67C G69U]	≤ 0.026
CUCUCGGUAGCGAAGUUGGUUUAAGGCGCAAGACUUUAAUUUAUCACUACGAAAUCUUGAGAUCGGGCGUUCGACUCGCCCCCGGAAGAUUUUUUCCUCGAGCAA [C12G G86A]	≤ 0.026
CUCUCGGUAGCGAAGUUGGUUUAAGGCGCAAGACUUUAAUUUAUCACUACGAAAUCUUGAGAUCGGGCGUUCGACUCGCCCCCGGCAGAUUUUUUCCUCGAGCAA [C12G G86C]	≤ 0.026
CUCUCGGUAGCGAAGUUGGUUUAAGGCGCAAGACUUUAAUUUAUCACUACGAAAUCUUGAGAUCGGGCGUUCGACUCGCCCCCGGGAUAUUUUUUCCUCGAGCAA [C12G G88U]	≤ 0.026
CUCUCGGUAGCGAAGCUGGUUAAAGGCGCAAGACUUUAAUUUAUCACUACGAAAUCUUGAGAUCGGGCGUUCGACUUGCCCCCGGGAGAUUUUUUCCUCGAGCAA [C12G U16C U22A C77U]	≤ 0.026
CUCUCGGUAGCGAAGGUGGUUUAAGGCGCAAGUGUUUAAUUUAUCACUACGAAAUCUUGAGAUCGGGCGUUCGACUCGCCCCCGGGAGAUUUUUUCCUCGAGCAA [C12G U16G A33U C34G]	≤ 0.026
CUCUCGGUAGCGAAGUAGGUUUAAGGCGCAAGACUUUAAUUUAUCACUACGAAAUCUUGAGAUCGGGCGUUCGACUCGCCCCCGGGAGAUUUUUUCCUCGAGCAA [C12G U17A]	≤ 0.026
CUCUCGGUAGCGAAGUCGGUUUAAGGCGCAAGACUUUAAUUUAUCACUACGAAAUCUUGAGAUCGGGCGUUCGACUCGCCCCCGGGCGAUUUUUUCCUCGAGCAA [C12G U17C A87C]	≤ 0.026
